# Data published in the supplement of paper PMC3334620.
# In all, about 33,000 sequences were measured (“E-score (-0.5 to 0.5)”: median about -0.056, highest 2% from about 0.38 on). Some of the results follow.
# Biological target: Stb4 (UniProt P50104)
# Assay: PBM E-score (8-mer binding enrichment) (E-score (-0.5 to 0.5)); higher = stronger / more preferred TF binding; most listed sequences are background and not binding sites
# Settings: protein concentration: 200 nM; construct: GST-DNA-binding domain
# Outline: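 Universal all-10-mer Agilent arrays, fresh or stripped once, were converted to double-stranded form by primer extension. GST-tagged yeast transcription factors from PURExpress in vitro transcription/translation, full-length or DNA-binding domain only, were applied at about 100-200 nM and detected with fluorescent anti-GST. After masliner normalisation, the Universal PBM Analysis Suite scored each ungapped eight-base word together with its reverse complement by E-score.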
row,Sequence,PBM E-score
1,TGTATCAA,-0.135
2,ACCCGAGC,0.468
3,ATTACGGG,0.0786
4,AGTTGTAT,-0.128
5,TAAGATCA,-0.0709
6,GAATATGC,0.0994
7,GCAAGCCA,-0.0993
8,GAGCGTTA,-0.128
9,CTACGGAC,-0.0122
10,GATACGGA,0.297
11,ATTGGCAC,-0.123
12,AGACACCA,-0.0518
13,CCTGTTGA,-0.26
14,AGAGTACA,-0.0793
15,ACCCCGCA,-0.0929
16,AAAAACAG,-0.183
17,AGGCAAAT,0.0165
18,AGCAATAA,-0.0891
19,GACTTGCA,0.0343
20,AACGGAAC,0.348
21,TCGACCCA,-0.208
22,ATGCATGC,-0.269
23,AGATCGCT,-0.026
24,ATTCAAAT,-0.0949
25,CTCGCTAA,-0.0851

row,Sequence,PBM E-score
1,AGTGCCTC,-0.0719
2,CGCGATAG,-0.06
3,AACAGCCC,0.00917
4,ATCGTACG,-0.0566
5,AAACGCAC,-0.0375
6,GAGAACTC,-0.0488
7,GACACTAA,-0.0556
8,AAGATCAA,-0.079
9,GATCTCAC,-0.0444
10,CCGACTAA,0.29
11,TCTCGTCA,-0.0473
12,ATCTATGC,-0.115
13,GTTGCAAA,-0.0177
14,AATTAATC,-0.157
15,AATAGCCA,-0.214
16,CTGCATGC,-0.0844
17,AGGGTCTC,-0.19
18,CTCCGCGC,0.168
19,GAGGCAAC,-0.0361
20,GTTGGTAA,-0.131
21,ACGTCCAA,-0.167
22,TCCACCGA,0.131
23,CGCTGCTA,0.0515
24,AAGGGATG,-0.185
25,CGTGGAGA,-0.148

row,Sequence,PBM E-score
1,ATGAGCGG,0.077
2,GGCTTAAC,-0.0396
3,ACGATTCG,0.182
4,CCCAGGTA,-0.309
5,CCCCTCGA,-0.0442
6,CAATGGGC,-0.149
7,GCTTATAC,-0.141
8,AGAGAGTA,-0.182
9,TCTGGAAA,-0.196
10,ACTGCGGG,0.116
11,ATCAGACG,-0.0153
12,AGTCGTAC,-0.158
13,ATCCTCGG,0.417
14,TGGAGCAA,-0.141
15,AGAATAGC,-0.102
16,ACGAGGGG,-0.168
17,GCGTTGAC,-0.201
18,CCCAATAA,-0.163
19,TACTGCTA,-0.053
20,AGGGCCCT,-0.163
21,ATCTGCTC,-0.0491
22,AAACACAT,-0.2
23,GCAGGTTA,0.0294
24,AAATGACT,-0.252
25,CGTGTGCA,-0.135

row,Sequence,PBM E-score
1,AAACGCGC,-0.0415
2,CACCCGTC,0.166
3,CAAGTGGG,-0.0904
4,ACTCACTG,-0.0866
5,AAGTGTAA,-0.102
6,CAACGGCC,0.0109
7,AACAACAA,-0.0268
8,AAAGTCAT,-0.181
9,AGCCATTG,-0.276
10,CACGAGGG,-0.0631
11,AGGACTAA,-0.00406
12,AGATCCAC,0.149
13,GAGCGGAA,0.343
14,AATGTGAC,-0.24
15,ACAGGTAG,-0.272
16,AGCAAGGA,-0.273
17,AGAGTAAT,0.0305
18,TCATTGCA,-0.328
19,GAACTCGC,-0.0568
20,TCTCAACA,-0.169
21,CCCGCGCC,0.242
22,AATTAGCG,0.0963
23,AGAACGTA,-0.155
24,AGTAGCCG,0.31
25,ACTTCCAG,-0.0725

row,Sequence,PBM E-score
1,CAATGCGA,-0.164
2,CGCCCAAC,-0.0225
3,ACCGCTGG,-0.144
4,AGGGACAG,-0.206
5,CCACCCCG,0.208
6,CCTCAAAC,-0.0597
7,CTAGCTCC,0.0436
8,AGGTCCGA,0.304
9,ACTCTTCT,-0.166
10,GAAGAGGA,-0.0364
11,AATGTCTC,-0.0517
12,ATTCTAAG,0.0613
13,CCCTCCCC,0.176
14,AACAATGA,-0.138
15,GAGATTGA,-0.169
16,CATTCCCA,-0.00341
17,ACCTGGAA,-0.188
18,ATGCCGCA,0.0956
19,AGACGACA,-0.0398
20,ATATCTGA,-0.0996
21,ACCATAAG,-0.245
22,TTACCTAA,-0.0268
23,GGGCGTAC,-0.0078
24,GAATATTA,0.0794
25,CCAATGCG,-0.134

row,Sequence,PBM E-score
1,ACCATTTA,-0.0193
2,CTGCGGTA,0.0992
3,GTTGAAGA,-0.15
4,TTCACAAA,0.0262
5,CAGGGATA,-0.234
6,CAGACGTA,-0.117
7,GACCAAGA,-0.026
8,AAACCGCC,0.0665
9,CCCAGCTA,-0.184
10,GCTCATCC,0.127
11,ACGCCCCC,0.0111
12,CGCACGTA,-0.0723
13,GACCACTA,-0.0106
14,CTCTATGA,-0.289
15,AGGAGAAA,-0.223
16,AATAGACA,-0.103
17,AAATTGCG,0.114
18,GTGTACAA,0.0523
19,GGCTTTAC,0.14
20,ACCGGAGT,0.135
21,ATCTAGAT,-0.0404
22,ACAAGTCC,-0.00879
23,AGGTTTGG,-0.195
24,CAGTGCCA,-0.312
25,CTCTTAGC,-0.0511

row,Sequence,PBM E-score
1,ATGAACTC,-0.0172
2,ATCAGTCA,-0.0498
3,GAATAACA,0.0969
4,AATATATC,0.183
5,ATTACCAC,-0.00999
6,AGGAAAAT,-0.128
7,AACTGACA,-0.103
8,GAAGCTTA,-0.13
9,GAGACGGC,0.0533
10,CGGCACCA,0.33
11,CTATGTAC,-0.177
12,AATACCAA,-0.102
13,GGATCAGA,0.0698
14,GATTAAGA,0.0838
15,AACTAATC,-0.021
16,ACGCTCCC,0.00542
17,AAGCCATA,-0.339
18,TCTTTTCA,-0.0839
19,GAACGGTC,0.148
20,CTACTCAG,-0.322
21,TACGTGAA,-0.126
22,CTAAGGGA,-0.127
